The results in this text go back to the supplement of paper PMC7826260.

Common to all, as to assay: uncleaved DNA left, log2 of reads against the no-enzyme library (log2 ratio); higher = less cleavage (more negative = more Rep cleavage of the k-mer); sequences stand for … in CTCGTCCG…ACCGGAGA
Assay [1] deals with T1, Rep nickase domain of Muscovy duck circovirus.
T1 sequence (Rep 1-111, printed without the tag): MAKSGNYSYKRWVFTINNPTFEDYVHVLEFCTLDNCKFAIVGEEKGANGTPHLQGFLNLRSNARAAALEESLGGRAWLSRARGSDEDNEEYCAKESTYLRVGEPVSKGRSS
The protocol: (§1)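 A pool of 90-nt single-stranded DNAs with seven random bases just before the constant AC of the nick site (name = the seven bases) was cut by 3 µM recombinant His6-SUMO-tagged Rep nickase domain (300 nM DNA, 50 mM HEPES pH 8.0, 50 mM NaCl, 1 mM MnCl2, 1 h, 37 °C, three replicates). Uncut DNA was amplified and sequenced.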

Assay [2] deals with T2, Rep nickase domain of banana bunchy top virus.
T2 sequence (Rep 1-94, printed without the tag): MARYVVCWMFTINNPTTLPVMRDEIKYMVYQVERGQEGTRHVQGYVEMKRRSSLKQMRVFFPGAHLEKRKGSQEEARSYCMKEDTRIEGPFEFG
On the procedure: as §1
In assay [3] the test system is T3, Rep nickase domain of cabbage leaf curl virus.
T3 sequence (Rep 1-116, printed without the tag): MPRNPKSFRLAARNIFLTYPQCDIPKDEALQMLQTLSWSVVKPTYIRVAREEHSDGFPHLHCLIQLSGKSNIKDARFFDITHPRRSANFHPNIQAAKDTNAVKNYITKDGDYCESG
On the procedure:
as §1

Assay [4] concerns T4, Rep nickase domain of chickpea chlorotic dwarf virus.
T4 sequence (Rep 1-124, printed without the tag): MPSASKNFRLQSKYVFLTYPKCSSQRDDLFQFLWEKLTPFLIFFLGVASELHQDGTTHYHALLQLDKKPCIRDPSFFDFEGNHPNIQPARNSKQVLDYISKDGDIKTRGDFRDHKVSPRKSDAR
The protocol: as §1
The subject of assay [5] is T5, Rep nickase domain of faba bean necrotic yellows virus.
T5 sequence (Rep 1-98, printed without the tag): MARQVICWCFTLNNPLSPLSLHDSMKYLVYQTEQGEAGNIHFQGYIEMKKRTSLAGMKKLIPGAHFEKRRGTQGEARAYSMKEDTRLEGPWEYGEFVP
The protocol:
as §1

For assay [6], the system named is T6, Rep nickase domain of maize striate mosaic virus.
T6 sequence (Rep 1-117, printed without the tag): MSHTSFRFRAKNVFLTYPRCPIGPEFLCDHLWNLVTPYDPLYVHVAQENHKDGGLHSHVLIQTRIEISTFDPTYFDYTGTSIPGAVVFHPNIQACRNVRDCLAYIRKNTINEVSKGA
The protocol:
as §1

For assay [7], the system named is T7, Rep nickase domain of porcine circovirus 2.
T7 sequence (Rep 2-116, printed without the tag): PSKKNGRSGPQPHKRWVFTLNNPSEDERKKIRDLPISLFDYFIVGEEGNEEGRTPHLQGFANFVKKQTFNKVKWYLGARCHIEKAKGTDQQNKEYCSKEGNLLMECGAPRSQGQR
On the procedure: as §1
Assay [8] deals with T8, Rep nickase domain of tomato golden mosaic virus.
T8 sequence (Rep 1-124, printed without the tag): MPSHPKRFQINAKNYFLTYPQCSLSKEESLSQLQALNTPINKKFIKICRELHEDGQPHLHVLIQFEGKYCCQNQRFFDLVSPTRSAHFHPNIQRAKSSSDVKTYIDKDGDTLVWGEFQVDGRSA
The protocol: as §1
The subject of assay [9] is T9, Rep nickase domain of tomato yellow leaf curl virus.
T9 sequence (Rep 1-136, printed without the tag): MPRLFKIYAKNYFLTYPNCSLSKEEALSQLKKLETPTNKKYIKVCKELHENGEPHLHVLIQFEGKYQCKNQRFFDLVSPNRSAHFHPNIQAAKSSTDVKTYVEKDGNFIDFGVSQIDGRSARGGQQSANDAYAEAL
On the procedure:
as §1

Assay [10] concerns T10, Rep nickase domain of wheat dwarf virus.
T10 sequence (Rep 1-137, printed without the tag): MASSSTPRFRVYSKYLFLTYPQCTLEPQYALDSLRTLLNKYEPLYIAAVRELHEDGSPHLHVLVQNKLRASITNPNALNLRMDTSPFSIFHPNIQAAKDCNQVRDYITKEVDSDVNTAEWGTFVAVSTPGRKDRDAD
On the procedure:
as §1

This is one part of the list. The data describe in vitro nicking of single-stranded DNA by Rep domains at 3 µM enzyme and 37 °C for 1 h; the strands have 90 letters, of which the middle is given. Values are log2 of uncut reads against the no-enzyme pool; more negative means more cut, near 0 not cut, and no call is made. Reads are scaled to the total; values above 0 arise when much of the pool is cut.

With AGTTAAT, the “uncleaved DNA left (log2)” value in assay [1] was -3.02; in assay [2], -1.57; in [3], -0.344; in assay [4], -0.793; in assay [5], -0.244; in assay [6] it was -0.086. For the same sequence, the “uncleaved DNA left (log2)” value in [7] was -3.97; in [8], -0.104; in assay [9], -0.0304; in assay [10] it was -0.238.

As to GAGATTA, the “uncleaved DNA left (log2)” value in assay [1] was -0.0174; in assay [2], 0.0664; in [3], 0.288; in assay [4] it was 0.254; in assay [5] it was -0.0911; in assay [6], 1.34. Also, the “uncleaved DNA left (log2)” value in assay [7] is -0.585; in assay [8] it was 0.0284; in assay [9], -0.0419; in assay [10], 0.0211.

With TATGCAT, the “uncleaved DNA left (log2)” value in [1] was 0.0159; in assay [2], 0.0103; in assay [3], -0.273; in assay [4] it was -1.05; in assay [5], 0.105; in assay [6], -0.704. Besides, the “uncleaved DNA left (log2)” value in assay [7] is -0.00342; in [8], -0.0544; in [9], 0.114; in assay [10], -0.0462.

Take CAGGCTC: the “uncleaved DNA left (log2)” value in assay [1] was -0.154; in [2], -0.0891; in assay [3] it was -0.083; in [4], -0.0809; in assay [5] it was -0.0436; in [6] it was 0.0542. Moreover, the “uncleaved DNA left (log2)” value in [7] was -0.114; in [8], -0.0394; in [9], -0.168; in assay [10], -0.116.

For GAACGTC, the “uncleaved DNA left (log2)” value was -0.0385 in assay [1]; -0.0603 in [2]; 0.272 in [3]; 0.328 in assay [4]; -0.139 in [5]; 0.799 in assay [6]. In addition, the “uncleaved DNA left (log2)” value in [7] is -0.00417; in [8] it was -0.0782; in assay [9], -0.0535; in assay [10], -0.0192.

Turning to AACTCAG, the “uncleaved DNA left (log2)” value is 0.00161 in assay [1]; 0.0228 in assay [2]; -0.62 in assay [3]; -0.624 in assay [4]; 0.0586 in assay [5]; -1.14 in assay [6]. The “uncleaved DNA left (log2)” value in [7] was 0.129; in assay [8], 0.0259; in assay [9], -0.079; in assay [10], -0.0262.

For GGTTCGT, the “uncleaved DNA left (log2)” value in assay [1] turned out to be 0.125; in assay [2] it was 0.0844; in assay [3], 0.456; in assay [4] it was 1.12; in assay [5], 0.109; in assay [6], 1.24. Moreover, the “uncleaved DNA left (log2)” value in assay [7] came out at 0.18; in assay [8], 0.114; in assay [9], 0.121; in assay [10], 0.175.

TAAACAG: the “uncleaved DNA left (log2)” value in [1] was 0.021; in [2], -0.04; in [3] it was -0.891; in [4], -1.53; in assay [5] it was 0.0342; in assay [6], -1.27. In addition, the “uncleaved DNA left (log2)” value in assay [7] was 0.124; in assay [8] it was 0.00296; in [9], 0.028; in assay [10] it was -0.00819.

On to TCCTTAG, for which the “uncleaved DNA left (log2)” value in assay [1] was 0.111; in assay [2] it was -0.023; in assay [3], -0.638; in assay [4], -0.782; in [5], 0.207; in assay [6], -1.2. Also, the “uncleaved DNA left (log2)” value in assay [7] is 0.104; in [8] it was -0.0288; in assay [9] it was 0.111; in assay [10] it was 0.00203.

On to ACTCCCC, for which the “uncleaved DNA left (log2)” value in assay [1] is 0.0021; in [2], -0.12; in assay [3], 0.0152; in assay [4] it was -0.237; in assay [5], -0.0811; in assay [6] it was -0.254. Moreover, the “uncleaved DNA left (log2)” value is -0.588 in assay [7], -0.0421 in assay [8], -0.177 in [9] and 0.00926 in [10].

As for TCAAGTG, the “uncleaved DNA left (log2)” value was 0.0168 in assay [1]; -0.0425 in assay [2]; -0.296 in assay [3]; -0.408 in assay [4]; -0.123 in assay [5]; -0.789 in [6]. Further, the “uncleaved DNA left (log2)” value in assay [7] was 0.103; in [8], 0.00681; in assay [9] it was -0.0442; in [10], 0.00647.

As for GACGTAT, the “uncleaved DNA left (log2)” value in assay [1] came to 0.167; in assay [2], 0.0154; in [3] it was 0.305; in assay [4], 0.432; in [5], 0.0904; in [6], 1.16. The “uncleaved DNA left (log2)” value in assay [7] is -0.0248; in [8], 0.0513; in assay [9], -0.0278; in [10], 0.135.

On to TCTCCGG, for which the “uncleaved DNA left (log2)” value came out at 0.0377 in [1]; 0.0626 in [2]; 0.607 in [3]; 1.47 in assay [4]; 0.114 in assay [5]; 1.99 in [6]. Also, the “uncleaved DNA left (log2)” value in assay [7] was 0.184; in assay [8] it was 0.157; in assay [9] it was -0.0504; in assay [10], 0.157.

On to GCTACGA, for which the “uncleaved DNA left (log2)” value is 0.0888 in assay [1]; -0.0124 in assay [2]; 0.0411 in [3]; -0.0412 in [4]; -0.13 in assay [5]; -0.505 in [6]. The “uncleaved DNA left (log2)” value was 0.0518 in [7], -0.109 in [8], -0.0976 in assay [9] and 0.0414 in assay [10].

TTTGAAT: the “uncleaved DNA left (log2)” value in assay [1] was -0.0214; in assay [2], -0.0328; in [3], 0.0597; in [4], -0.428; in assay [5] it was 0.00337; in [6], -0.233. The “uncleaved DNA left (log2)” value in assay [7] is -0.211; in assay [8], -0.132; in assay [9] it was -0.0546; in assay [10], -0.0572.
